Experimental data from ChEMBL document CHEMBL4888484, “Replenishing the malaria drug discovery pipeline: Screening and hit evaluation of the MMV Hit Generation Library 1 (HGL1) against asexual blood stage Plasmodium falciparum ,using a nano luciferase reporter read-out” (2022).
The campaign covered roughly 150,000 compounds. About 540 (0.36%) showed an effect of 50% or more. This is one part of the list.

tested on: Plasmodium falciparum; experiment: Primary screen in NF54 nanoGlo assay, in single point, at 2uM, 72h; a lower Z score goes with more inhibition; type: functional, Erythrocyte; settings: timepoint 72 hour

| Structure (SMILES) | % Inhibition [%] | Z score |
| --- | --- | --- |
| Cc1nc(N2CCC[C@H](n3cncn3)C2)ccc1Br | -8 | 1.68 |
| CS(=O)(=O)c1ccc(N2CCN(CC3CCCC3)C(=O)C2)cc1 | -4 | 0.51 |
| CC(C)CCNC1CCOC12CCN(C(=O)OC(C)(C)C)C2 (centres undefined) | -7 | 1.17 |
| CNS(=O)(=O)C1CCN(C(=O)C(C)Cc2cccc(Cl)c2)C1 (centres undefined) | 0 | 0.02 |
| O=C1NCCOCCCN(C(=O)c2cccs2)[C@H]2CCCC[C@@H]12 | -6 | 0.84 |
| C/C(=C\c1ccco1)c1c(-c2ccccc2)ncn1[C@@H](C)c1nnn[nH]1 | 19 | -2.45 |
| CCOC[C@@]12CCN(C(C)=O)C[C@@H]1CN(C(=O)c1ccc(C)c(C)c1)C2 | -16 | 1.87 |
| Cc1cc(C(=O)N2CC(n3cc(CO)nn3)C2)nn1C | -4 | 0.75 |
| Cc1nc(NCCc2csc(C(C)C)n2)cc(C2CC(O)C2)n1 (centres undefined) | -8 | 1.46 |
| C=CCOc1cccc2c1cc(C(=O)N1CCN(c3ccccc3F)CC1)n2Cc1cccc(Cl)c1 | -1 | 0.13 |
| CCCN(CCC)S(=O)(=O)N1CCC[C@H]1C(N)=O | -1 | 0.25 |
| Cc1nccn1C[C@H]1CCCN(C(=O)[C@H]2CC[C@@H](O)CC2)C1 | 3 | -0.43 |
| CCc1nc2c(NS(=O)(=O)c3cnn(CC)c3)cccn2n1 | 0 | 0 |
| Cc1ccsc1CN(C)C(=O)c1ccc(-c2nc(N(C)C)ns2)cc1 | -17 | 2.67 |
| Cn1nc(-c2ccc(F)cc2)cc1C(=O)NCCn1nc(-c2ccccn2)c2c1CCCC2 | -3 | 0.53 |
| COc1cccc(Cc2nc(-c3cccc(NC(=O)Nc4ccc(F)cc4)c3)no2)c1 | -3 | 0.28 |
| O=C(NCc1nc2ccccc2s1)c1nc[nH]n1 | -11 | 1.4 |
| CCNC(=O)Nc1ccccc1C(F)(F)F | -2 | 0.26 |
| CN(Cc1cccnc1)C[C@H]1CCCN(c2ncnc3nc[nH]c23)C1 | 4 | -0.82 |
| CCCC(=O)NCc1ccc(C(=O)O)c(OC)c1 | 0 | 0.03 |
| C=CC[C@]1(CO)CCCN(CC(C)(C)N2CCOCC2)C1 | -3 | 0.43 |

| Structure (SMILES) | % Inhibition [%] | Z score |
| --- | --- | --- |
| COc1ccc(CNC(=O)CN2CCC[C@H]2c2nc3ccccc3s2)cc1OC | -7 | 1.31 |
| Cc1noc([C@@H]2CCCO[C@H]2C2CCN(CCCC(C)(C)C)CC2)n1 | 15 | -1.91 |
| COc1cn(CC(=O)NC2CCCC2)c(CN2CCCCC2)cc1=O | 0 | 0.05 |
| COc1ccc(OCC(=O)Nc2ccc3c(c2)nc(CN2CCN(C)CC2)n3C(C)C)cc1 | -14 | 1.2 |
| CCOC(=O)c1cc2n(n1)C[C@@](C)(C(=O)NC1CCCCC1)N(c1ccc(F)cc1F)C2=O | 8 | -0.91 |
| CCC1(N2CCOCC2)CCN(c2ncc(C(F)(F)F)s2)CC1 | 12 | -1.55 |
| COCc1nc(-c2cccc(N3CCNC3=O)c2)n(CCO)n1 | -7 | 1.15 |
| CC(C)c1cc([C@@H]2CCCN2S(=O)(=O)c2ccc(C3CCCCC3)cc2)on1 | -19 | 2.5 |
| CC(C)c1nn(-c2ccccc2)c(Oc2ccccc2F)c1CN(C[C@H]1CCCO1)C(=O)c1cccc(F)c1 | -13 | 1.92 |
| Cc1ccc(C)c(Cn2c(C)c(CNC3CCCC3)c(C(=O)O)c2C)c1 | -19 | 3.53 |
| COc1c(C(=O)Nc2ccc(C)cc2)oc2ccc(NC(=O)c3n[nH]c4ccccc34)cc12 | 15 | -1.75 |
| CCn1c(CN(Cc2ccncc2)CC2CCN(CCOC)CC2)nc2ccccc21 | -15 | 2.7 |
| COc1ccc(-c2noc(-c3ccc(S(=O)(=O)N4CCCCCC4)o3)n2)cc1 | 3 | -0.54 |
| COc1cccn(CCCn2ccnc2C)c1=O | -2 | 0.35 |
| O=c1ccncn1CC1CCN(c2ncnc3c2CCCC3)CC1 | -16 | 2.33 |
| CC(C)n1cc(-c2nc(CC(N)=O)nn2CCO)cn1 | 17 | -2.18 |
| COc1ccc(C(O)(c2ccc(OC)cc2)c2ccc(CN(Cc3ccc4c(c3)OCO4)Cc3ccco3)o2)cc1 | 1 | -0.18 |
| Cc1cccc(-c2noc([C@@H]3Cc4[nH]cnc4CN3C(=O)c3ccccc3C(=O)O)n2)c1 | -13 | 2.04 |
| NC(=NCc1ccc(C2CC2)cc1)N1CCOCC1 | 1 | -0.06 |
| CC(C)[C@H](C)N(C(=O)c1cc(C(C)(C)C)n[nH]1)C1CC1 | -10 | 1.49 |
| O=S(=O)(Nc1ncccn1)c1cnc2n1CCC2 | -9 | 1.12 |
